According to patent US5837686A, “Peptides and antibodies for treatment of rheumatoid arthritis” (Peptide Therapeutics Limited, priority 1991, dated 1998):
Part of at least one peptide drawing is inferred or uncertain, most often the ends. Ends that are not written are not given here.

Assays:
IgA-α1 AT complex = assay: HPLC analysis of dissociation of purified IgA-α1 AT complex in vitro; format: biochemical, human; settings: for HPLC / HPLC minimum: minimum concentration giving complex: free IgA ratio of 20%; for HPLC minimum: Table 6, >500 = no dissociation at highest concentration tested; for HPLC %: Table 1, minimum peptide concentration giving complex: free IgA ratio of 20% (base-line 14%), 90 minutes at 37° C.
Protocol: The ability of the peptides of the invention to dissociate purified IgA-α1 AT complex in vitro was tested as described below. The anti-rheumatic drug D-penicillamine and other synthetic peptides were used as controls. […] The sample was monitored at wavelength 206 nm at a flow rate of 1 ml/minute with phosphate buffer (0.1M) pH 7.1. They represent the ability of the peptides to dissociate the IgA-α1 AT complex in vitro. In these experiments, the base-lines level comprises a complex: free IgA ratio of 14%. The minimum concentration of peptide taken to produce a positive dissociation effect is that which results in a complex: free IgA ratio at 20%. In the results tables, all the peptide values are expressed in μMoles.

[1] = test system: alternative complement (C3) pathway; assay: Inhibition of C3-activation (IgA-α1 AT complex activation of alternative complement pathway, rabbit RBC lysis); format: biochemical, human; settings: for C' minimum: Table 6
Protocol: Various peptides were tested for their ability to prevent the IgA-α1 AT complex from activating the alternative complement (C3) pathway. […] This method was based on the method described by Riches and Stanworth, Immunology Letters, 1980, 1, 363,366, with modification to miniaturise it thus allowing the assay to be carried out on microtitre plates. The initial observation by […] and Ishizaka (J Immunol. […] The non-immune complex IgA-α1 AT had been shown in the past to be the only known soluble complex to activate the alternative pathway complement and inhibit the lysis of the rabbit erythrocytes. This inhibition required biologically active complex. […] Positive and negative controls, serum only controls and serum plus IgA-α1 AT complex controls were included in the assay. 25 μl of a suitable dilution of IgA-α1 AT complex (see (iii) above) was added to the test wells and the plates were centrifuged at 2000 rpm for 1 minute. The plates were then incubated at 37° C. for 11/2 hours. 50 μl of a suitable serum dilution (see (a) above) was added and the plates centrifuged at 2000 rpm for 10 minute, then incubated at 37° C. for 30 minutes. 50 μl of 1% rabbit RBC was added and after a further 30 minutes of 37° C. incubation, the plates were centrifuged at 2000 rpm for 10 minutes. Supernatants were taken as previously. The mean values of each of the serum(s), serum and complex (c+s) and total haemolysis wells were calculated. The % haemolysis with respect to lysis by serum wells was calculated. The peptide was considered to have titred out when % lysis value was equal to the calculated % lysis value given by the c+s mean. The titre point for the peptide was calculated as the concentration in μM of the peptide that just gave greater lysis than the c+s mean value.

[2] = Table 4, minimum concentration needed to prevent C3 activation
[3] = minimum concentration needed to prevent C3 activation
[4] = Table 5, minimum concentration needed to prevent C3 activation
[5] = Table 1, minimum concentration of peptide needed to prevent C3 activation

Substance | C' [1, 4] [µM] | HPLC (IgA-α1 AT complex; Table 5) [µM] | C' [1, 5] [µM] | HPLC % (IgA-α1 AT complex) [µM] | also measured
DGGHCKK-NH2 [Peptide 118, DGGHCKKnh2] |  |  |  |  | HPLC (IgA-α1 AT complex; Table 4): 50 µM
DGHCKK-NH2 [Peptide 119, DGHCKKnh2] |  |  |  |  | HPLC (IgA-α1 AT complex; Table 4): 10 µM
DGTCY [Peptide 126, DGTCY, reference compound] |  |  |  |  | HPLC minimum (IgA-α1 AT complex): > 500 µM
DHCKK [Peptide 108, DHCKK] |  |  |  |  | HPLC minimum (IgA-α1 AT complex): 10 µM
DHCKK-NH2 [Peptide 113, DHCKKnh2] |  |  |  |  | C' [1, 2]: 78 µM; HPLC (IgA-α1 AT complex; Table 4): 10 µM
EGHCKK-NH2 [Peptide 155, EGHCKKnh2] |  |  |  |  | C' [1, 2]: < 2 µM; HPLC (IgA-α1 AT complex; Table 4): 5 µM
EHCKK-NH2 [Peptide 154, EHCKKnh2] |  |  |  |  | C' [1, 2]: < 2 µM; HPLC (IgA-α1 AT complex; Table 4): 5 µM
EVDGTCY [Peptide 124, EVDGTCY, reference compound] |  |  |  |  | C' minimum [1, 3]: 16 µM; HPLC minimum (IgA-α1 AT complex): 250 µM
GMFNIQHCKKLSS [Peptide 90, GMFNIQHCKKLSS] |  |  |  |  | C' minimum [1, 3]: 31 µM; HPLC minimum (IgA-α1 AT complex): 50 µM
HCKKD-NH2 [Peptide 120, HCKKDnh2] | 62 | 50 |  |  | 
HCKKE-NH2 [Peptide 150, HCKKEnh2] | 8 | 50 |  |  | 
HCKKGD-NH2 [Peptide 121, HCKKGDnh2] | 62 | 125 |  |  | 
HCKKGE-NH2 [Peptide 151, HCKKGEnh2] | 16 | 50 |  |  | 
HCKKGGD-NH2 [Peptide 122, HCKKGGDnh2] | 31 | 50 |  |  | 
HCKKGGE-NH2 [Peptide 152, HCKKGGEnh2] | 125 | 10 |  |  | 
HCKKGGGD-NH2 [Peptide 123, HCKKGGGDnh2] | 31 | 50 |  |  | 
HCKKGGGE-NH2 [Peptide 153, HCKKGGGEnh2] | 63 | 50 |  |  | 
HDCKK-NH2 [Peptide 198, HDCKKnh2] |  |  | 3.9 | 10 | 
HECKK-NH2 [Peptide 204, HECKKnh2] |  |  | < 1.95 | 10 | 
HFCKK-NH2 [Peptide 208, HFCKKnh2] |  |  | 3.9 | 10 | 
HGCGGGK-NH2 [Peptide 167, HGCGGGKnh2] |  |  | < 2 | 10 | 
HGCGGK-NH2 [Peptide 166, HGCGGKnh2] |  |  | < 2 | 10 | 
HGCGK-NH2 [Peptide 144, HGCGKnh2] |  |  | 32 | 50 | 
HGGCGGGK-NH2 [Peptide 169, HGGCGGGKnh2] |  |  | 8 | 50 | 
HGGCGGK-NH2 [Peptide 162, HGGCGGKnh2] |  |  | < 2 | 10 | 
KAAGS [Peptide 96, KAAGS, reference compound] |  |  |  |  | HPLC minimum (IgA-α1 AT complex): > 500 µM
